Test results as given in PubChem BioAssay AID652104 (National Center for Advancing Translational Sciences (NCATS), 2013).
The whole screen tested about 410,000 compounds, of which about 7,200 (1.8%) were called active. This list was built around the results that the source calls inconclusive (neither active nor inactive); the mix of calls is not that of the screen. Calls come from the whole dose curve; as a rule, active = well fitted activation curve with a large enough effect; inconclusive = small, poorly fitted or top-dose-only effect, or another doubt; inactive = no such curve, though single readings can be large or run the other way. Potencies of inconclusive entries are left out as doubtful fits.

test: qHTS of TDP-43 Inhibitors; details: TDP-43 expressing yeast growth rescue, BacTiter-Glo, 24 h; growth rescue (activation): at 46.1 µM (top of the series) unless noted; note: nearly all actives have a fitted effect of over 50% in size; for growth rescue (activation): % of control where 0% means no effect
Procedure, shortened: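 Luminescence from BacTiter-Glo reports growth of TDP-43-expressing yeast after 24 hr at 30 deg C with compound. Cells were raffinose-pregrown to mid-log, then seeded in galactose medium at OD600=0.02.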
Potency is the fitted concentration of half-maximal effect; tags give direction and shape of the fitted curve.

Row | Structure (SMILES) | Potency | growth rescue (activation)
1 | Cc1cc(C(=O)CCl)c(C)n1CCc1ccc(F)cc1 | inconclusive [activator, partial curve] | –
2 | CCCCCCCNC(=O)CN1N=C(c2ccc(C)cc2)CCC1=O | inconclusive [activator, partial curve] | –
3 | O=C(Nc1ccccc1Cl)N1CCC2(CC1)Oc1ccccc1C(=O)N2Cc1ccc(F)cc1 | inactive | –
4 | CCOc1ccc(NC(=O)c2cccnc2Cl)c([N+](=O)[O-])c1 | inconclusive [activator, single point] | –
5 | C=CCOC(=O)Nc1c(C(=O)OC)[nH]c2ccc(Cl)cc12 | inactive | –
6 | O=C(Nc1ccc(Br)cc1)c1ccc2ncsc2c1 | active: 3.16 µM | –
7 | Cc1ccc(C(=O)COC(=O)CCC(=O)Nc2ccccc2Cl)cc1[N+](=O)[O-] | inconclusive [activator, partial curve, poor fit] | –
8 | C#CCOCCOCCOCCNc1nc(N2CCN(C(=O)CCCCCCCCCCNC(=O)[C@H](CCCCN)n3cc(C)nn3)CC2)nc(N2CCN(C(=O)CCCCCCCCCCNC(=O)[C@H](CCCN=C(N)N)n3cc(C[C@@H](C)CC)nn3)CC2)n1 | inconclusive [activator, partial curve, poor fit] | –
9 | Cc1ccc(S(=O)(=O)NC(=O)c2ccc(Br)o2)c(C)c1 | inconclusive [activator, full curve, poor fit] | –
10 | Cc1cccc2sc(NC(=O)Cn3cccc3)nc12 | inactive | –
11 | CC(C)Oc1ccc(CNC(=S)Nc2ccccc2)cc1Cl | inconclusive [activator, partial curve] | –
12 | COc1cc(C(=O)NCc2ccc3c(c2)CCN3C(=O)c2ccc(Cl)cc2)cc(OC)c1OC | inactive | –
13 | CN(CC(=O)Nc1ccc(F)cc1)C(=O)COc1ccccc1Cc1ccccc1 | inconclusive [activator, single point] | –
14 | CCc1ccccc1NC(=O)Cn1c(=O)n(CCc2ccccc2)c(=O)c2sc3ccccc3c21 | inactive | –
15 | O=C1C=C(c2ccc3ncccc3c2)C[C@@H](c2ccc3c(c2)OCO3)C1 | inconclusive [activator, partial curve] | –
16 | CCC1(c2ccc(Cl)cc2)NC(=S)N(c2ccccc2)N1 (configuration not stated) | inconclusive [activator, single point] | –
17 | Brc1ccc2nc(-c3ccccc3)c(Cc3ccsc3)n2c1 | inconclusive [activator, single point] | –
18 | CC(C)N(C(=O)[C@H]1C[C@H](CC(=O)NC(C)(C)C)C(=O)N2CCc3c([nH]c4cc(-c5ccco5)ccc34)[C@]12C)C(C)C | inconclusive [activator, single point] | –
19 | Cc1cccc(-c2nc3c4ccccc4nc(N4CCN(c5cccc(Cl)c5)CC4)n3n2)c1 | inconclusive [activator, partial curve] | –
20 | O=C(NCCS(=O)(=O)N1CCN(c2cccc(Cl)c2)CC1)C(c1ccccc1)c1ccccc1 | inconclusive [activator, partial curve, poor fit] | –
21 | Cc1ccc(NC(=O)C[n+]2ccccc2)cc1C | inactive | –
22 | O=S(=O)(c1ccc(Br)s1)n1cccn1 | inconclusive [activator, full curve] | –
23 | CC(=O)Nc1cc2c(cc1[N+](=O)[O-])OCCO2 | inactive | –

Row | Structure (SMILES) | Potency | growth rescue (activation)
24 | Cc1cccc(Cn2c(=O)n(-c3cc(C)cc(C)c3)c(=O)c3oc4ccccc4c32)c1 | inconclusive [activator, single point] | –
25 | Cc1ccccc1NC(=O)c1ccccc1NS(=O)(=O)c1cccc2cccnc12 | inconclusive [activator, partial curve, poor fit] | –
26 | CCOc1ccccc1C(=O)Nc1nccs1 | inconclusive [activator, partial curve] | –
27 | O=c1[nH]nc(-c2ccc(F)cc2)cc1Cc1ccccc1 | inconclusive [activator, single point] | –
28 | Cn1c(=O)cc(SCC(=O)NCc2ccc(F)cc2)c2cc(Cl)ccc21 | inactive | –
29 | CCn1c2ccccc2c2cc(NC(=O)c3ccco3)ccc21 | inconclusive [activator, single point] | –
30 | CCN1C(=O)/C(=C\N2CCCCCC2)SC1=S | inconclusive [activator, single point] | –
31 | Cc1ccc(S(=O)(=O)c2c(CO)c(-c3ccccc3)nn2C)cc1 | inconclusive [activator, single point] | –
32 | O=C(CSc1nc2ccccc2s1)Nc1cc(S(=O)(=O)N2CCOCC2)ccc1O | inconclusive [activator, partial curve] | –
33 | COc1ccc(Cc2nc3ccccc3n2Cc2ccccc2C)cc1 | inactive | –
34 | O=S(=O)(NCC1CC1)c1cccc(S(=O)(=O)N2CCCC2)c1 | inactive | –
35 | Cc1ccc2c(C)c(C(=O)N3CCN(c4cnccn4)CC3)oc2c1C | active: 12.6 µM | –
36 | Cc1nc(COC(=O)c2ccc(S(=O)(=O)N3CCCC3)cc2)cs1 | inconclusive [activator, partial curve] | –
37 | COc1ccc(N2CCN(C(=O)c3cn(CC4CCCCC4)nn3)CC2)cc1 | inconclusive [activator, partial curve] | –
38 | CCCc1c(-c2cccc(F)c2)ncn1CCc1ccccc1OC | inconclusive [activator, single point] | –
39 | CN(C)c1nc(SCc2ccc(Cl)cc2)nc2c1CCCC2 | inconclusive [activator, single point] | –
40 | O=[N+]([O-])/C(=C\Nc1ccc(F)cc1F)S(=O)(=O)c1ccccc1 | inconclusive [activator, partial curve] | –
41 | Nc1ccc2c(c1)C(=NO)c1ccccc1-2 | inconclusive [activator, partial curve] | –
42 | O=C(CCc1ccccc1)Nc1ccnn1C1CCN(C/C=C/c2ccccc2)CC1 | inconclusive [activator, partial curve] | –
43 | c1csc(CNc2ncnc3sccc23)c1 | active: 14.1 µM | –
44 | Cc1cc(C(=O)OCC(=O)Nc2ccccc2C)c(C)o1 | inconclusive [activator, partial curve] | –
45 | CCC1(C)Cc2[nH]c(=O)c(C#N)cc2CO1 (configuration not stated) | inactive | –
46 | O=C(CN1C(=O)CCn2nc(-c3ccccc3)cc21)NCc1ccccc1 | – | inactive: 18.2% [at 9.22 µM]

Row | Structure (SMILES) | Potency | growth rescue (activation)
47 | COc1ccccc1NC(=O)CSc1nnc(NC(=O)C2CCC2)s1 | inconclusive [activator, single point] | –
48 | CCc1ccc(OC(=O)CN2C(=O)c3ccccc3C2=O)cc1 | active: 15.8 µM | –
49 | CCCC[C@@H]1CCCO[C@@](C(=O)NCc2cc(C)n(C)n2)(C(F)(F)F)C1 | inconclusive [activator, partial curve] | –
50 | COc1ccccc1/C=C/C(=O)/C=C/c1ccccc1O | inconclusive [activator, partial curve, poor fit] | –
51 | COc1ccc(NC(=O)C2(C)Cc3c(-c4ccc(N(C)C)cc4)ccnc3O2)cc1 (configuration not stated) | inactive | –
52 | Cc1cc(SCC(=O)OCC(=O)NC(C)c2ccccc2)c(C)cc1Br (configuration not stated) | inconclusive [activator, single point] | –
53 | COc1ccc(OCc2cc(C(=O)NC(C)c3nc(C)cs3)no2)c(Cl)c1 (configuration not stated) | inconclusive [activator, full curve, poor fit] | –
54 | Cc1ccccc1-c1nc(NC(C)C)nc2ccsc12 | inconclusive [activator, single point] | –
55 | O=C(Cn1cnc2onc(-c3ccc(F)cc3)c2c1=O)N1CCN(c2ccc(F)cc2)CC1 | active: 35.5 µM | –
56 | Cc1nn2c(-n3ccnc3)c3c(nc2c1-c1ccccc1)CCC3 | inconclusive [activator, single point] | –
57 | Cc1cc2c(c(C)c1Cl)C(c1ccc3c(c1)OCO3)CC(=O)O2 (configuration not stated) | active: 22.4 µM | –
58 | COc1cccc(CNC(=O)c2sc3ncccc3c2-n2c(C)ccc2C)c1OC | inconclusive [activator, single point] | –
59 | COc1ccccc1CNC(=O)Cn1nc(C)n2cccc2c1=O | inactive | –
60 | COc1ccc(OC)c(NC(=O)c2ccc(NC(C)=O)cc2)c1 | inactive | –
61 | CCC(Sc1nnc2c3ccccc3n(CC)c2n1)C(=O)Nc1ccc(NC(C)=O)cc1 (configuration not stated) | inactive | –
62 | Cc1[nH]c2ccccc2c1/C=N/Nc1nc(Nc2ccccc2)nc(N2CCOCC2)n1 | inconclusive [activator, partial curve] | –
63 | COc1cccc(C2C(C(=O)Nc3ccccc3OC)=C(C)Nc3nc(-c4ccco4)nn32)c1 (configuration not stated) | inconclusive [activator, partial curve, poor fit] | –
64 | Cc1noc(C)c1NC(=O)N(C)C[C@H]1OCc2cnnn2CCCC(=O)N([C@@H](C)CO)C[C@H]1C | inconclusive [activator, full curve, poor fit] | –
65 | O=C(N/N=C/c1ccco1)c1cc(-c2cccs2)[nH]n1 | inconclusive [activator, partial curve] | –
66 | COc1ccc(-c2nnc(SCc3cc(C)ccc3C)n2N)cc1 | inconclusive [activator, partial curve] | –
67 | Cc1ccccc1Oc1ccc2c(c1)[C@@H]1C[C@H](N(C)C(=O)NC3CCCCC3)[C@H]([C@H](C)O)C(=O)N1CC2 | inconclusive [activator, partial curve, poor fit] | –
